# Screen size: about 310,000 compounds; about 2,200 (0.71%) showed an effect of 50% or more. The effect is printed as a negative number. The list shows a part of the results.
# Target: human ether-à-go-go-related gene (hERG) potassium channel (human, UniProt Q12809)
# Test: primary screen, population patch clamp on CHO cells stably expressing hERG
# Chain of human ether-à-go-go-related gene (hERG) potassium channel (Q12809 whole entry, looked up): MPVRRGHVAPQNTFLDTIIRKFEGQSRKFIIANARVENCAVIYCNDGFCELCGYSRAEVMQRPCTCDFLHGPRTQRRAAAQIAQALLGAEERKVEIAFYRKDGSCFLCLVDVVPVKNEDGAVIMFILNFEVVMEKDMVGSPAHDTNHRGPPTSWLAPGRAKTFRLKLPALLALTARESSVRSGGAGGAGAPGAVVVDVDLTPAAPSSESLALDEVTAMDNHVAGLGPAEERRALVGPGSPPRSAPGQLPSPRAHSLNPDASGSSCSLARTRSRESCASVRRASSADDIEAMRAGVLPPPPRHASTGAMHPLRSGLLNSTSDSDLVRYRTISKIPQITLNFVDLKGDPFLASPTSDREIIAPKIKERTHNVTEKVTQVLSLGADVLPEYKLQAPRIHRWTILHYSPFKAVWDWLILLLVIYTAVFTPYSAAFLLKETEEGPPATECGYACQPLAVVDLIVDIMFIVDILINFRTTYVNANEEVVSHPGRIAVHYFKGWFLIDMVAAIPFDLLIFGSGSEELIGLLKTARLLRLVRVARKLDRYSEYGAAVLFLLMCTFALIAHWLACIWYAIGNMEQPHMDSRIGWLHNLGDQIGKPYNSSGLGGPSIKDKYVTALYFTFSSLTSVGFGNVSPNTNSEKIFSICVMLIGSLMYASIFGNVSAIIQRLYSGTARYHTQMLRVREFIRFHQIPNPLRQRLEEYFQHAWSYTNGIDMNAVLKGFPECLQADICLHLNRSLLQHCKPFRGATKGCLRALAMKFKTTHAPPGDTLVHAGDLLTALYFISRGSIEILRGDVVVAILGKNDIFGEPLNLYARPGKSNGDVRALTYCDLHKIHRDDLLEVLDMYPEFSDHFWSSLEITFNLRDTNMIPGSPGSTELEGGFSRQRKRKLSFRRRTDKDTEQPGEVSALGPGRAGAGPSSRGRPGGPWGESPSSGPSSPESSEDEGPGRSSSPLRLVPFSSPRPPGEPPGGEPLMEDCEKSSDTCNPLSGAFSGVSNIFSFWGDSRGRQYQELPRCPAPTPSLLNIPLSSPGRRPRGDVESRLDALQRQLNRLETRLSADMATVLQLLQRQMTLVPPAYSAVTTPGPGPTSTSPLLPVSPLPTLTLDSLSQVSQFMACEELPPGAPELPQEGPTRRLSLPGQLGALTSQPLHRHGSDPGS
row,SMILES,"hERG current change (%, negative = inhibition) at 1uM [%]"
1,CN[C@@H](C)[C@@H](O)c1ccccc1.Cl,8.91
2,O=C(NC(=S)Nc1sc2c(c1C(=O)O)CCCC2)c1ccccc1,9.8
3,CCOC(=O)N1CCC(N(CCN(C)C)C(=S)Nc2ccccc2Cl)CC1,9.36
4,Cn1c(SCC(=O)NCCc2ccccc2)nnc1C1CCCCC1,22.7
5,Cl.c1ccc2c(c1)oc1c(NCCCn3ccnc3)ncnc12,-20.3
6,COc1cc(-c2noc(C)c2C(=O)NCCO)cc(OC)c1OC,10.6
7,Cc1cc(Cl)ccc1C(=O)C1CCCN(C(=O)CCn2cnnn2)C1 (stereo not drawn),9.91
8,N#CC1(NC(=O)CN2C(=O)c3ccc([N+](=O)[O-])cc3C2=O)CCCCC1,6.76
9,Cc1c(C(=O)NCCc2ccc(S(N)(=O)=O)cc2)cccc1[N+](=O)[O-],15.7
10,CC(=O)Nc1cccc(-n2nnc(SCC(=O)N(C)c3ccccc3)n2)c1,6.17
11,CC(NC(=O)c1ccnn1C)C1CCCO1 (stereo not drawn),15.8
12,O=C(c1ccc(C(F)(F)F)cc1)C1CCCN(C(=O)c2cnccn2)C1 (stereo not drawn),-7.62
13,COc1ccc(C(=O)NC(C)(C)C)cc1S(=O)(=O)N1CCCC1,7.08
14,CN(C)S(=O)(=O)c1cccc(NC(=O)CCSc2ccc(Cl)cc2)c1,8.11
15,O=c1c2ccccc2[nH]c(=S)n1Cc1ccccc1Cl,15.3
16,CCOc1ccc(-c2nc(S(=O)(=O)c3ccccc3)c(N3CCOCC3)o2)cc1,5.85
17,Cc1ccc(OCCNC(=O)c2cccc(S(=O)(=O)N3CCN(C)CC3)c2)cc1,6.44
18,COc1ccc(/C=N/n2c(C)nc3ccccc3c2=O)cc1OC,9.07
19,C/C(=N/NC(=O)CCc1ccccc1)c1ccco1,13.8
20,CCC(C)(C)n1nnnc1C(c1ccc(OC)c(OC)c1)N1CCN(C(=O)c2ccco2)CC1.Cl (stereo not drawn),0.745
21,CO/N=C/c1cccn1-c1nccc(N(C)C)c1C#N,10.2
22,O=C(Nc1ccc2c(c1)CCC2)C1CCCO1 (stereo not drawn),2.95
23,O=C(CN1CCN(c2nc(-c3ccccc3)cs2)CC1)NNC(=O)c1ccc(Br)cc1,5.23

row,SMILES,"hERG current change (%, negative = inhibition) at 1uM [%]"
1,NC(N)=N/N=C/c1ccc(OCc2ccc(Cl)cc2)cc1,-5.54
2,Cc1c(C)c2ccc(OCC(=O)NCCCn3ccnc3)cc2oc1=O,9.16
3,CC1CCc2c(sc3[nH]c(=S)n(C)c(=O)c23)C1 (stereo not drawn),18.5
4,COc1cc2nc(-c3ccccc3C)oc(=O)c2cc1OC,12.4
5,CCC(=O)NNc1ncnc2c1cnn2C,5.27
6,CSCCC(NC(=O)COc1ccccc1)C(=O)N(C)CC(=O)Nc1c(C)cccc1C (stereo not drawn),14.1
7,Cc1ccc(NC(=O)Cn2cccc2)c(Br)c1,-10.2
8,Cc1cc(=O)[nH]c(SCC(=O)/C=C2\N(C)c3ccccc3C2(C)C)n1,11
9,COc1ccc(C2=[N+]([O-])C(C)(C)N(O)C2C)cc1 (stereo not drawn),-5.1
10,Cn1cc(CNC(=O)C23CC4CC(CC(C4)C2)C3)cn1,9.66
11,c1ccc(Cn2ncc3c(N4CCCCC4)ncnc32)cc1,-5.94
12,Cn1nc([N+](=O)[O-])nc1Oc1ccccc1C(=O)N1CCOCC1,11.5
13,CC(C)(C)c1cc(NC(=O)NN2CCOCC2)nn1-c1c(Cl)cc(Cl)cc1Cl,11.9
14,Cc1ccc(S(=O)(=O)NNC(=O)C2COc3ccccc3O2)cc1 (stereo not drawn),9.18
15,Cc1ccc(Cn2nnnc2CN2CCC(n3nnc4cc(C(F)(F)F)ccc43)CC2)cc1,11.8
16,Cc1ccc2[nH]c3c(=O)n(CC(=O)N4CCN(C)CC4)ncc3c2c1,9.78
17,COC(=O)c1cc(C(=O)OCC(=O)NC(=O)c2ccccc2)cc([N+](=O)[O-])c1,15.9
18,CC(=O)OC(C(=O)NC1CCCCC1)c1ccc(C#N)cc1 (stereo not drawn),5.25
19,Cc1cc(C)cc(N(C(=O)c2cccs2)C2C=CS(=O)(=O)C2)c1 (stereo not drawn),8.49
20,C(=N\N1CCN(C2c3ccccc3-c3ccccc32)CC1)/c1ccccn1,13.8
21,COC(=O)c1c(NC(=O)C2CC=CCC2C(=O)O)sc(C(N)=O)c1C (stereo not drawn),-10.3
22,COc1ccc(/C=C/c2ccncc2)cc1,7.47
23,COc1ccc(OCC(=O)N/N=C(\C)CC(=O)Nc2ccc(NC(C)=O)cc2)cc1,15.5

row,SMILES,"hERG current change (%, negative = inhibition) at 1uM [%]"
1,COC(=O)c1ccc(NC(=O)c2ccccc2N(C)S(=O)(=O)c2ccccc2)cc1,13.9
2,COC(=O)C1=C(c2ccc(S(C)(=O)=O)cc2)C[C@@H]2CC[C@H]1N2C(=O)N1CCC(O)CC1,9.51
3,O=C(Nc1nc2ccccc2n1CCN1CCOCC1)c1ccc(COc2ccccc2Br)o1,-7.69
4,CCCN1CCC(=NNc2ccc(C(=O)O)cc2)CC1.O=S(=O)(O)O,11.2
5,CCNC(=S)N/N=C(\C)c1cccc(OC)c1,3.62
6,CCOC(=O)c1ccc(NC(=O)C2(c3ccc(OC)cc3)CCCC2)cc1,7.25
7,Cc1csc(NC(C)c2nc3cc(Cl)c(Cl)cc3n2CCCO)n1 (stereo not drawn),6.67
8,COc1ccc(-n2nc(C(=O)NCC(=O)N3CCCCCC3)c3ccccc3c2=O)cc1OC,2.17
9,O=C(Nc1ccccc1)c1sccc1Oc1ccc([N+](=O)[O-])cc1F,3.54
10,C/C=C/c1ccc(OCCOCCNCc2ccccc2)c(OC)c1.O=C(O)C(=O)O,5.38
11,O=C1C(=Cc2cccs2)C(=O)c2ccccc21,12.1
12,FC(F)(F)c1cccc(Cc2noc(CN3CCCCC3c3ccccn3)n2)c1 (stereo not drawn),6.57
13,COc1ccccc1N1CCN(c2nnc(-c3ccc(F)cc3)c3ccccc23)CC1,12.4
14,Cc1sc2ncnc(N3CCCC(C)C3)c2c1C.Cl (stereo not drawn),15
15,Cc1ccc(C)c(C(=O)N2CCN(c3ncccn3)CC2)c1,4.4
16,COc1ccccc1C(=O)N1CCN(c2cccc(Cl)c2)CC1,12.4
17,COc1ccc(Cl)cc1C(=O)O/N=C(\N)c1ccccn1,11.4
18,CCCC(C)c1nnc(NC(=O)C2CC(=O)N(c3ccc(OCC)cc3)C2)s1 (stereo not drawn),-13.2
19,O=C(C[n+]1cccc(CNC(=O)c2ccc(OC(F)F)cc2)c1)c1ccccc1.[Cl-],2.3
20,CSc1ncccc1C(=O)NCCc1ccccc1,3.42
21,NC(=O)C1CCN(C(=O)OCc2ccccc2)CC1,15.6
22,CCOc1ccc(-n2c(=S)sc3c(=O)[nH]c(SCC(=O)C(C)(C)C)nc32)cc1,18.1
23,O=C(Nc1ccc(S(=O)(=O)NC2=NCCCCC2)cc1)c1ccc([N+](=O)[O-])s1,-12

row,SMILES,"hERG current change (%, negative = inhibition) at 1uM [%]"
1,Cc1ccc(NC(=O)CSc2nnc(C3CC3)n2N)cc1S(=O)(=O)N1CCOCC1,20.1
2,CC(=O)NC1C(Oc2cccc(C)c2)OC2COC(c3ccco3)OC2C1O (stereo not drawn),0.894
3,COC(=O)CSc1nnc(NC(=O)CCc2ccccc2)s1,18
4,Cc1cc(=O)c(C(=O)O)nn1-c1ccccc1Cl,19.2
5,C=CCN(C(=O)Cn1ncc2c1-c1cc(C)ccc1OC2)c1ccccc1,-2.97
6,Cn1c(=O)oc2cc(S(=O)(=O)NCc3ccccn3)ccc21,13
7,CC(=O)Nc1ccc(NC(=O)C(=O)N/N=C/c2cccnc2)cc1,10.5
8,CCCn1nc(C(=O)NNC(=O)CSCC(=O)Nc2cc(C)on2)c2ccccc2c1=O,12.3
9,CCOC(=O)C1=C(N)OC(C)=C(C(=O)OCCOC)C12C(=O)Nc1ccccc12 (stereo not drawn),4.11
10,O=C(Cn1cccc1C(=O)c1ccccc1)NCCCN1CCOCC1,14.3
11,COc1ccc2ncc(S(=O)(=O)c3ccccc3)c(N3CCN(c4ccccc4)CC3)c2c1,11.9
12,Cc1ccc(-n2ccc(-c3nn(-c4ccccc4)ccc3=O)n2)cc1,3.98
13,CCN1CCN(C(=O)c2ccc(COc3cccc(Cl)c3)o2)CC1,12.9
14,COc1ccc(/C=N\NC(=O)c2ccccc2F)cc1COc1ccc(F)cc1F,6.72
15,O=C(NCc1ccc(Cl)cc1)C(=O)NCC1OCCN1C(=O)c1cccs1 (stereo not drawn),3.06
16,COc1ccc(C(=O)Nc2ccccc2C(=O)N/N=C/c2ccccn2)cc1OC,15.7
17,Cc1ccc(S(=O)(=O)N(CC(O)CN2CCOCC2)c2cc(Cl)ccc2Cl)cc1.Cl (stereo not drawn),-2.22
18,Cc1ccc(C)n1-n1cnc2sc3c(c2c1=O)CCCCC3,-9.02
19,COP(=O)(NC(=O)C(Cl)(Cl)Cl)OC,9.73
20,COc1cc(Cl)cc(/C=N/NC(N)=O)c1O,7.76
21,O=C(NC1CCCC1)C(c1ccc(F)cc1)N(Cc1ccccc1)C(=O)c1csnn1 (stereo not drawn),5.61

# Reference: article PMC4336329 (PLoS ONE, 2015)
